Measured values: publication PMC6919601, “Identification of Plasmodium dipeptidyl aminopeptidase allosteric inhibitors by high throughput screening” (PLoS ONE, 2019)
Hit rate of the full screen: of about 110,000 compounds, about 230 (0.21%) showed an effect of 50% or more. Some of the results follow.

target: DPAP1 (Plasmodium falciparum, UniProt Q8IIJ9); experiment: primary screen, percent inhibition; read by cleavage of a fluorogenic dipeptide substrate; higher = more effect of the substance; design: species or system P. falciparum D10 trophozoite lysates; single well
Sequence (Q8IIJ9 whole entry, looked up): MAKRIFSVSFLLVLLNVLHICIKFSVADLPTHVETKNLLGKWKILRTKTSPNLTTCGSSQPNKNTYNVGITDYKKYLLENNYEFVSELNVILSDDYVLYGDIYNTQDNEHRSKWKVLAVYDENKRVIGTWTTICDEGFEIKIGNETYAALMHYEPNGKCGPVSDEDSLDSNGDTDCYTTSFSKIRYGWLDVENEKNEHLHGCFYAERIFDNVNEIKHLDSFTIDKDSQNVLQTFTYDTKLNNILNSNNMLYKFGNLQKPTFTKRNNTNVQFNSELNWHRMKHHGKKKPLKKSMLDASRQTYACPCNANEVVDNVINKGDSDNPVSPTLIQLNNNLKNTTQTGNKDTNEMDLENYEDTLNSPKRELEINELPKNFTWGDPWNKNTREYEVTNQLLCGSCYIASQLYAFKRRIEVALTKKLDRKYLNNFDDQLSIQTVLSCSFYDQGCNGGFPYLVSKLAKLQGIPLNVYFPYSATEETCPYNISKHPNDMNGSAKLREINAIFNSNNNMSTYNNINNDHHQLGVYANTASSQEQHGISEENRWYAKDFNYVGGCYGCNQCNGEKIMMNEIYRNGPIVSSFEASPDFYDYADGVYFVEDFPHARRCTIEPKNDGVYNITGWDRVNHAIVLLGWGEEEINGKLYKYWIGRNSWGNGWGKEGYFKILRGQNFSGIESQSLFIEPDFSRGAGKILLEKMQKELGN
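Also: 30 min substrate incubation versus DMSO and 10 µM JCP410 controls.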

| Structure (SMILES) | % Inhibition @ 10 uM [%] |
| --- | --- |
| Cc1cc2cc(CNC(=O)c3ccc(F)cc3)ccc2[nH]1 | -0.138 |
| CCN(CC)S(=O)(=O)c1ccc(-c2csc(-c3ccccc3)n2)cc1 | -0.661 |
| Cc1nn(-c2ccccc2)c(O)c1-c1c(C)nn(-c2ccccc2)c1O | -1.22 |
| Cc1ccccc1-c1nc(CSCC(=O)NC(C)c2ccc3c(c2)OCCO3)c(C)o1 (stereo not drawn) | 0.689 |
| CC[C@H](C)[C@H](NC(=O)OCc1ccccc1)C(=O)NNC(=O)c1csc([C@H](CC(C)C)NC(=O)OCc2ccccc2)n1 | -9.15 |
| Cc1cc2nn(-c3ccccc3)nc2cc1NC(=O)C(C)C | -3.83 |
| O=C(Nc1cccc(F)c1)c1ccccc1Cl | 1.48 |
| CCOCCCNc1ncnc2c1cnn2C | 0.925 |
| Cc1ccc(S(=O)(=O)Nc2ccc(S(=O)(=O)Nc3nccc(C)n3)cc2)cc1 | 2.67 |
| CCOc1ccccc1/C=C1\CCC(C2CCCC2)C1=O (stereo not drawn) | 22.4 |
| Cc1oc(-c2ccc(Cl)cc2)nc1CS(=O)CC(=O)NC(C)c1ccccc1 (stereo not drawn) | -2.85 |
| COc1ccccc1CNC(=O)C1CCC(=O)N1C(C)C (stereo not drawn) | 2.05 |
| COc1ccc(C2=NN(C(C)=O)C(c3ccccc3)C2)cc1OC (stereo not drawn) | -1.42 |
| C=Cc1ccc(Cn2c(C)c(CNCc3ccc4c(c3)OCO4)c(C(=O)O)c2C)cc1 | -1.92 |
| CCOC(=O)N1CCC(N2CCN(c3ccccc3C)CC2)CC1 | -1.81 |
| CC(C)CCNS(=O)(=O)c1ccc2[nH]c3c(c2c1)CCCC3 | 4.43 |
| CC(C)(C)NC(=O)CN1C(=O)S/C(=C\c2ccccc2)C1=O | 1.04 |
| O=C(Nc1ccc(Cl)cc1C(=O)NCc1cccnc1)c1ccco1 | 2.36 |
| CCn1c(NC(=O)C23CC4CC(C2)CC(n2cnc(Cl)n2)(C4)C3)nc2ccccc21 | 0.64 |
| COc1ccccc1OCC(=O)NC1CCCCC1 | -4.66 |
| O=C(O)Cn1c2ccccc2c2cc(Cl)ccc21 | -5.11 |

| Structure (SMILES) | % Inhibition @ 10 uM [%] |
| --- | --- |
| COCCNC(=O)Cn1nc(C)n2c(cc3cc(OC)ccc32)c1=O | 1.68 |
| C=CCc1cc(/C=C2/NC(=O)N(Cc3ccccc3F)C2=O)cc(OC)c1O | -2.63 |
| COc1cc(NC(=O)c2ccc(OC(F)F)cc2)cc(OC)c1OC | -1.96 |
| Cc1noc(NS(=O)(=O)c2ccc(NC(=O)Cc3ccc(Br)cc3)cc2)c1C | 13.6 |
| Cc1ccccc1OCC(=O)Nc1ccccc1NC(=O)COc1ccccc1C | 11.4 |
| COc1cccc2c1Sc1ccccc1CC2N1CCN(C)CC1 (stereo not drawn) | -7.31 |
| N#CC1=C(N)OC2=C(C(=O)CC(c3ccccc3)C2)C1c1ccc(F)c(F)c1 (stereo not drawn) | 1.96 |
| CC(=O)N[C@@H](CC1CCCCC1)C(=O)NCC#N | 1.35 |
| CCOC(=O)N1CCC2(CC1)OC(=O)C(C)=C2C(=O)NCc1ccccc1 | -1.04 |
| COc1ccc(C(=O)C2=C(O)C(=O)N(CCCN(C)C)C2c2ccc(Cl)c(Cl)c2)cc1C (stereo not drawn) | -1.61 |
| Cc1ccc2oc(=O)c3cc(C(=O)NCCN(C)C)sc3c2c1 | 0.232 |
| O=C(c1cccnc1N1CCN(CCO)CC1)N1CCCC1 | -2.67 |
| O=c1c2c(-c3ccccc3)csc2nc2c3ccccc3c(NCCN3CCOCC3)nn12 | 20.4 |
| Cc1ccc(NC(=O)c2ccc(OC(F)F)cc2)cc1C | 21.6 |
| NC(=O)c1nc(-c2cccs2)nc2c1nc(O)n2-c1ccccc1 | -10 |
| O=C(Nc1ccc(NC(=O)c2ccco2)c(Cl)c1)c1ccc(Br)cc1 | 4.22 |
| O=C(O)C1C2CCC(C2)C1C(=O)Nc1nc(-c2ccc(Cl)cc2)cs1 (stereo not drawn) | 2.25 |
| COc1ccc(-c2cc(C(=O)O)c(C)n2C)cc1 | -1.51 |
| O=C(Cn1sc2ccccc2c1=O)N1CCN(C(=O)c2ccco2)CC1 | -1.65 |
| COc1ccc(CCNC(=O)c2ccc(CS(=O)Cc3ccc(C)cc3)o2)cc1OC (stereo not drawn) | -0.154 |
| O=C(c1cc2ccccc2oc1=O)N1CCN(C(c2ccccc2)c2ccccc2)CC1 | 7.96 |

| Structure (SMILES) | % Inhibition @ 10 uM [%] |
| --- | --- |
| C1=C(CCNCC2CCCCC2)CCCC1 | -2.77 |
| O=C(Nc1cccnc1)c1cnn(-c2ccccc2)c1-n1cccc1 | 0.137 |
| Cc1ccc(CN2CCN(c3ncccn3)CC2)c(C)c1 | 3.1 |
| c1cc2c3c(cccc3c1)C(SCCc1ccncc1)C2 (stereo not drawn) | -7.25 |
| Cc1nc2ccc(NC(=O)N3CCC(c4ccccc4)C3)cc2nc1C (stereo not drawn) | -5.71 |
| Cc1nc2sc3c(O)cc(O)nc3c2c(C)c1C | -6.58 |
| CN1C(=O)/C(=C/c2nc3ccccc3c(=O)n2-c2ccccc2)c2ccccc21 | 8.56 |
| COc1ccc(S(=O)(=O)N(CC(=O)N2CCCCC2)c2ccc(C)cc2)cc1Br | -5.13 |
| CCn1c2ccccc2c2cc(CNc3ccc(F)cc3)ccc21 | -1.81 |
| O=c1/c(=C/c2c(F)cccc2Cl)sc2nc(-c3ccccc3)nn12 | 0.0069 |
| CC(C)(C)c1csc(NC(=O)C23CC4CC(CC(C4)C2)C3)n1 | -6.36 |
| CC(C)(C)CC(=O)NCc1nc(-c2ccc(Cl)cc2)no1 | -6.96 |
| Cc1nn(CCC(=O)NCc2ccco2)c(=O)c2nn(-c3ccccc3)c(C)c12 | 0.227 |
| COc1cccc(CN2CCN(Cc3ccc(OC)c(OC)c3)CC2)c1 | -6.27 |
| Cc1ccc(-c2[nH]nc3c2C(c2ccoc2)C(C#N)=C(N)O3)cc1C (stereo not drawn) | 9.57 |
| O=C(Nc1ccc2oc(=O)ccc2c1)c1ccc(Br)cc1 | -4.23 |
| CC[C@H](NC(=O)C(Cc1c(F)cccc1F)NC(=O)c1ccc(-c2ccccc2Cl)cc1)C(=O)c1nc2ccccc2o1 (stereo partly drawn) | -6.56 |
| CN(Cc1ccco1)C(=O)Cn1cc(S(=O)(=O)N2CCCC2)c(S(=O)(=O)N2CCCC2)c1 | -7.06 |
| CCOP(=O)(OCC)C(=O)c1ccccc1F | -3.65 |
| COc1cc(NC(=O)C(C)(C)Oc2ccc(Cl)cc2)cc(OC)c1 | 12.5 |
| COC(=O)c1cc2occc2n1Cc1ccc(C)cc1 | -0.405 |
